# Test results taken from the supplement of paper PMC11417369.
# The list shows a part of the results.
# System: PfHDP1 homeodomain (GST-tagged)
# Test: gcPBM binding intensity (ln(normalized median fluorescence intensity)); higher = stronger DNA binding
# Method in brief: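 Binding of GST-tagged P. falciparum DNA-binding domains, expressed in E. coli and used at about 25 μg on average, was carried out for 1 h in 1× PBS containing 1% milk, 0.2 mg/ml BSA, 0.5% salmon testes DNA and 0.03% Triton X-100. The target was an Agilent 4 × 180k array of primer-extended double-stranded 36-bp intergenic genomic probes plus negative controls, read with Alexa488 anti-GST antibody at 488 nm. Binding intensity is the highest Masliner-normalised natural-log median intensity across replicate spots of either probe orientation.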
row,Sequence,gcPBM binding intensity (ln)
1,ATAATTAACAAATACACACACACACGCCCACAAAAA [CACACA_site6389],7.17
2,TATTGGAAAATTAGAAGTACTTTCATATATTAGACT [XGTACX_site4503],6.18
3,TTTTTATTATTCCATAGTACAGAAAAAATGATATAT [XGTACX_site3431],6.54
4,ATTCTTTATTATTCGCCACACACATATATATATATA [CACACA_site9009],9.18
5,TATAATGAGAAGATATAATATATAGGGGGTAATTCT [GTGCAC_negctrl_site228],6.52
6,TTTTTTTCATAAGAAGCACACAAAAAATGATAGAGA [CACACA_site8401],6.87
7,ATATATATATATATATGTACTTATTTGTATAAATAC [XGTACX_site8031],9.24
8,ATACCTACATACATACGTACATATATATATATAATG [XGTACX_site234],7.33
9,TAGATTTTTATGCGTGCACACATTTAAAAAAAAAAC [CACACA_site3421],10.3
10,AAATATAATAACATAACACACACATGTATTTATAGG [CACACA_site8009],6.49
11,TTTTAATAAATTCAAAACATAAAAAGGAAAAAAAAA [XGTACX_negctrl_site471],5.98
12,TAATAAATAAATGACACACACACACGCAAAAAAAAA [CACACA_site7275],6.65
13,AGGATATAATACCATACACACATTTATAAAATAACA [CACACA_site1930],6.63
14,ATAATATGAAAACACACACACACACCCAAAAAAAAA [CACACA_site2011],6.78
15,ATATATATTATATATATATATATATATATATATATA [CACACA_negctrl_site493],9.32
16,CACATTAATTTTTGGGTGCACTTGGGAAATTTTGGT,9.07
17,AACAAATACGAACACACACACACACTAAAAAAAAAA [CACACA_site6386],6.85
18,TGTAATCAAAAAAATAGTACATAAATTGTGTATACT [XGTACX_site5908],6.57
19,ATATAGAATAAAACTATACACACCTATATTTAAACA [CACACA_site1902],6.54

row,Sequence,gcPBM binding intensity (ln)
1,TGTAGTCTGGAGAAAAGTACACAGTATCTGGTAACC [XGTACX_site2033],5.91
2,CTTGTATAGAAACACACACACACTTTCTTTTTTTAA [CACACA_site1964],6.76
3,TATATTAATAAAGGTACTACACGGAAATGGAAATAT [XGTACX_site7760],7.24
4,ATATAAAAAAATAATAAATAAATAAAAAGATTTCTT [XGTACX_negctrl_site110],6.09
5,ATATTTTCCCTTGTTTTACACACGTGCTGATATGAG [CACACA_site8672],7.52
6,AATTTGAAATATGTGGTGCAGTTATATAATATGTTT [GTGCAC_site9885],7.62
7,TTAAGTCCGTTAACAGTGCATTTTTTCTTTTATGTA [GTGCAC_site9867],7.28
8,AGAAAAGAGAAAAGTAGTACAAAGGATCATTTAAAA [XGTACX_site5294],6.57
9,ATTAAAAAAATATAAACACACAAAAAAAAAATATAC [CACACA_site1100],7.06
10,TAATGAAAAAATAAAAGAATAAATAAATAAATAAAT [TGCATGCA_negctrl_site130],6.51
11,TATAAAAAGCATAACACACACATGTCAATATATATA [CACACA_site1111],6.92
12,AAAAAAAAAATATGTACACACATATATAATACATAA [CACACA_site1639],6.44
13,ATAGAACAGAAAAGGCGTACAATAATATGTAAACAA [XGTACX_site2828],6.47
14,TAAAAATCCACAAGCACACAAATGTACATATATATA [CACACA_site2462],6.61
15,CATACATAGATATATACACACATACCTATAAATACA [CACACA_site6513],6.95
16,TATATATGTGTTATATACCCTTTTTTATATATTAAT [XGTACX_negctrl_site313],6.62
17,ATTACATGATATATCACACACACATATAGATATATA [CACACA_site7352],6.98
18,GCTATTAATTTATAAGCACACAATATAAATATATAT [CACACA_site2251],6.31
19,TACGTCTTTTTTTTGGTGCATAATTTTTTTGTACAA,10.4

row,Sequence,gcPBM binding intensity (ln)
1,TACACGTTCTACATTTGTACTTAATTTATACATAAG [XGTACX_site1579],6.86
2,AATTTTGTTAAAAGGACACACAATTCAATATATTAA [CACACA_site647],6.49
3,ATTTATTTAAACAAATCACACACAAATATATATACA [CACACA_site8622],6.75
4,TATATTAAAATATTCACACACTAACGTAAATCATTG [CACACA_site5520],6.6
5,TATGTCGACATTTAAAGTACAAAAAAAAAAAAAAAA [XGTACX_site8985],6.36
6,ATATTCATTAACCACACACACAAAAAAAATAAAATT [CACACA_site3801],6.99
7,ATATATGTATTTAATACACACAAAACTTTCATTCCA [CACACA_site3531],6.67
8,ATACATATATGCTTCTGTACACATAATTTATAAAAA [XGTACX_site7000],7.09
9,TTTTTAGAAAGACATGCATGTAATAAAAATAAATAA [TGCATGCA_site685],6.69
10,TATGAAAAGATATATACACACATAATAAAGGTATAT [CACACA_site7713],6.38
11,CATTATTATTAACATACACACGTGTTAAATACACCC [CACACA_site6118],7.37
12,ATTAAAACAAAATGTACACACATATCATTTAATGAC [CACACA_site6543],6.29
13,CTATTTCAATTTAGTGCACACATTTTAATTTATAAG [CACACA_site2040],10.9
14,ACATACACATATACATGTACATATATATATATATAT [XGTACX_site5082],9.33
15,TTTTAATCTTAATTATGTACATATAAAATGTGTATA [XGTACX_site7382],6.27
16,TATAAATTTAAAATGACACACACTAAAATTATTTAA [CACACA_site1239],6.48
17,TATATATATATATATATATATATATATATATGTATA [TGCATGCA_negctrl_site17],9.25
18,GTATTATTATTATGCACACAAAAATATTTATACATA [CACACA_site3656],10.9
19,CATATGTCTTGAGATCGTACGTTATTTTTTTTATTT [XGTACX_site1381],6.99
